Measurements taken from patent US20070015695A1 (NATIONAL JEWISH HEALTH, published 2007).

Target: T1, soluble TALL-1 (sTALL-1), amino acids 134-285 of human TALL-1, His6-tagged, wild type (human, UniProt Q9Y275 in part)
T1 construct: Expressed in E. coli; Monomers form trimers, and at pH 7.4 and above a virus-like cluster of 60 monomers (20 trimers); Immobilised as 'wild type multimeric sTALL-1' in the BIAcore assay; also called wild type sTALL-1; native sTALL-1; not shown: N-terminal His6 tag from vector pET14b
Experiment: co-expression, gel filtration at 100 mM to 1 M NaCl and SDS gel analysis, ratio 1:1
Experimental: However, four lines of evidence support the present inventors' belief that the crystal structure described herein reflects the actual interactions of the complexes in solution and in vivo. First, co-expression of sTALL-1 with eBCMA or eBAFF-R generates the virus-like cluster in solution as judged by gel-filtration column and […] analysis at a ratio of 1:1 (sTALL-1: eBCMA or eBAFF-R). Different salt concentrations (from 100 mM to 1 M NaCl) produce the same elution profile, in which complexes of sTALL-1 with eBCMA or eBAFF-R elute at a void volume on superdex-200. Thus, binding between ligand and receptors is stable and insensitive to salt concentrations. Purified samples of the preformed complexes were subjected to crystallization trials. Crystals of both complexes have been obtained, however neither of them diffracted. The results further confirmed that the “flap” region of TALL-1 which is involved in clustering, is not part of the receptor binding site. […] Second, in the receptor soaked sTALL-1 crystals, all seven fully occupied receptors and one partial receptor have equivalent binding sites on sTALL-1 in the asymmetry unit, so the binding is highly specific. Third, eBCMA and eBAFF-R have a similar binding mode and occupy the same site on sTALL-1. […]

- binding result: binds
B1: eBAFF-R, extracellular domain of BAFF-R ([…] of SEQ ID NO:8) (receptor)
chain: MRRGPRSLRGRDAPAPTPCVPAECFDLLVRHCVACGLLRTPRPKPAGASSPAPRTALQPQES
notes: Made as a GST fusion in pGEX4T-2 and cleaved with thrombin; […] are ordered in the model; also called BAFF-R/BR3 extracellular domain; soluble monomeric eBAFF-R
